Hit rate of the full screen: of about 110,000 compounds, about 230 (0.21%) showed an effect of 50% or more. Some of the results follow.
The compounds below were run against DPAP1 (Plasmodium falciparum, UniProt Q8IIJ9) (assay: primary screen, percent inhibition; read by cleavage of a fluorogenic dipeptide substrate; higher = more effect of the substance).
Design: species or system P. falciparum D10 trophozoite lysates; single well
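Further: 30 min substrate incubation versus DMSO and 10 µM JCP410 controls.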

Sequence of DPAP1 (Q8IIJ9 whole entry, looked up): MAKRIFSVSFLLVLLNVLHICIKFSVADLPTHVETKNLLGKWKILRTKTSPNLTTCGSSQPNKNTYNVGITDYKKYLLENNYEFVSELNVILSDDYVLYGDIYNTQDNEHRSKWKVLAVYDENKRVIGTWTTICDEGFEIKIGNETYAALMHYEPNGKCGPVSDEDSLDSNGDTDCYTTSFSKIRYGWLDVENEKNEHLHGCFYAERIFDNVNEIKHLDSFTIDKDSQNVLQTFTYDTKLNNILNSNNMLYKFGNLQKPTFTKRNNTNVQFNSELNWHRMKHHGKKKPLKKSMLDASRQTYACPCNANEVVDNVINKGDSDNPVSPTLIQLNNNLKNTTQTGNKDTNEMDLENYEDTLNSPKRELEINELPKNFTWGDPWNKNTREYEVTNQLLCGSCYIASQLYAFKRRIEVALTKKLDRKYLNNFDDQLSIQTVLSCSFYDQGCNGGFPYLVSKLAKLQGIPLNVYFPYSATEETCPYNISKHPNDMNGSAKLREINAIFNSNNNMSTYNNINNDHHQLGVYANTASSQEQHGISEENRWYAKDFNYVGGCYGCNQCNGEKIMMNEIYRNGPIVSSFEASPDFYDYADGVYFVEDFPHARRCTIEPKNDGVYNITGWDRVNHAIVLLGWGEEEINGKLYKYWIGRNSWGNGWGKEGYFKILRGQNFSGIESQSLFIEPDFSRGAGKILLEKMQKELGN

Structure (SMILES) | % Inhibition @ 10 uM
Cc1nnc2c3ccccc3nc(N3CCN(C(=O)c4ccco4)CC3)n12 | 3.5%
Cc1nc2ccc(S(=O)(=O)NCC(=O)N3CCCC(C)C3)cc2s1 (stereo not shown) | 2.57%
CCN(CC)CCCCN1c2ccccc2Sc2ccccc21 | -4.43%
COc1ccc(-c2cn3c(C)c(C(=O)Nc4cccc(C)n4)sc3n2)cc1 | -7.53%
O=C(Nc1cccnc1Cl)C1CCN(c2nc3ccccc3n2Cc2cccc(F)c2)CC1 | 0.0882%
Fc1ccc(CN2CCCCC2c2cccnc2)cc1F (stereo not shown) | -1.5%
COc1ccc(C(=O)NCc2nnc(SCC(=O)Nc3nnc(C)s3)o2)cc1 | 84%
CCn1c(C(=O)O)c(CNCCC(C)C)c2ccccc21 | 5.09%
CNS(=O)(=O)c1ccc(N/C=C2/C(=O)NC(=O)N(c3ccccc3)C2=O)cc1 | 0.751%
C=C(C)[C@@H]1CC=C(CNc2ccc3c(c2)OCO3)CC1 | 19.1%
CSc1nn(-c2cc(Cl)nc(-c3ccccc3)n2)c(N)c1C#N | -0.994%
O=C(NCCCc1ccccc1)c1ccc(CS(=O)c2cccc(Cl)c2)o1 (stereo not shown) | 2.03%
NS(=O)(=O)c1ccc(CCNc2ncnc3c2c(-c2ccccc2)cn3-c2ccccc2)cc1 | 2.72%
CC(C)(C)C(/C=C/c1ccc(Cl)cc1Cl)NC1=NC(=S)N(c2cccc(C(F)(F)F)c2)C1(C)C (stereo not shown) | -1.42%
O=S(=O)(c1ccc(F)cc1)N1CCSC1c1ccc2c3c(cccc13)CC2 (stereo not shown) | -7.18%
CC1(C)Cc2nc(NCCO)c(C#N)cc2CO1 | 2.67%
O=S(=O)(Cc1ccccc1)N1CCN(c2cccc(Cl)c2)CC1 | 3.82%
CC(C)OCCCNC(=O)c1ccc(CSCc2cccc(Cl)c2)o1 | -6.4%
COc1cc(C2C(=O)N(C3CCCCC3)CC(=O)N2Cc2ccc(F)cc2)ccc1OC(C)C (stereo not shown) | 4.47%
Cc1ccccc1OCC(=O)N(Cc1ccccc1F)C1CCS(=O)(=O)C1 (stereo not shown) | -3.12%
COc1ccc(CCNC(=O)Cn2nnc3sc4c(c3c2=O)CCC(C)C4)cc1OC (stereo not shown) | 0.561%
CCSc1ncc(Cl)c(C(=O)N(Cc2ccccc2)c2ccccn2)n1 | 2.19%
COc1cccc(/C=C/C2=NN(c3cccc(F)c3)C(c3cccc(OC)c3OC)C2)c1OC (stereo not shown) | -3.65%
COc1ccc(O)c(C2CC(c3c(O)cc(C)oc3=O)=NCCS2)c1 (stereo not shown) | -1.8%
COCCNc1nc2ccc(C(=O)c3ccccc3)cc2n2cnnc12 | 4.4%

Structure (SMILES) | % Inhibition @ 10 uM
Cc1sc(N)c(C(=O)NCc2cccnc2)c1-c1ccccc1 | 2.4%
CCCCc1nc(S(=O)(=O)c2ccccc2)c(N2CCOCC2)o1 | -4.03%
COc1ccc(OC)c(CC2(NC(=O)c3ccccc3Cl)N=C3C(C)=CC=CN3C2=O)c1 (stereo not shown) | -4.15%
N=C1S/C(=C\c2ccco2)C(=O)N1c1ccc2c(c1)OCO2 | -5.91%
O=C1O[C@@H]2C[C@H]3C[C@@H]2[C@@H]1[C@H]3C(=O)N1CCC(C(O)(c2ccccc2)c2ccccc2)CC1 | 0.347%
CCCCCn1c(N2CCCC2)nc2c1c(=O)n(C)c(=O)n2C | 0.425%
CC1=C(C(=O)Nc2cccc(C)n2)C(c2cccc(Cl)c2)C2=C(O)CCCC2=N1 (stereo not shown) | -2.46%
N#Cc1c(S)nc2c(c1-c1ccncc1)CCCC2 | 30.8%
CCCNC(=O)C(Cc1ccccc1)NS(=O)(=O)c1cccc2nsnc12 (stereo not shown) | 2%
CN1CCc2c(sc3c2C(=O)NC(c2cc(Br)ccc2O)N3)C1 (stereo not shown) | 1.31%
COc1ccc(/C=N/n2c(C)nnc2C)c(OC)c1OC | 4.67%
O=C(NCCc1nc2ccccc2n1CCC1CCCCC1)c1ccco1 | -4.82%
COc1ccc(-n2nnnc2C2CCN(S(=O)(=O)c3ccc(S(C)(=O)=O)cc3)CC2)cc1 | 3.27%
N=c1c2c(n(Cc3ccc(Cl)cc3)c3c1CCC3)CCC2 | 5.59%
O=C(C1CCCN(S(=O)(=O)N2CCC3(CC2)OCCO3)C1)N1CCN(C2CCCCC2)CC1 (stereo not shown) | 1.17%
O=C(/C=C/c1cn(CC(O)CN2CCOCC2)c2ccccc12)c1cccs1 (stereo not shown) | -5.36%
CC(C)(C)C1CCC(OC(=O)CCC(=O)Nc2ccc(Cl)cc2Cl)CC1 (stereo not shown) | -1.76%
Cc1ccc(C)c(CN2CCN(c3ccccc3Cl)CC2)c1 | -9.51%
Cc1cccc(NC(=O)c2ccc([N+](=O)[O-])cc2C(=O)O)c1 | -1.45%
OCC1CCCN(C2CCN(Cc3ccccc3)CC2)C1 (stereo not shown) | 4.74%
CCc1ccc(CNC(=O)CSCc2ccc(F)cc2)cc1 | 2.18%
CCOc1cc(-c2noc(N)c2C(=O)OC)cc(OCC)c1OCC | 3.96%
COc1cc2c(cc1OC)/C(=C/CN1C(=O)CCC1O)CCS2 (stereo not shown) | 0.235%
C=CCNC(=O)CN(c1cccc(OC)c1)S(=O)(=O)c1ccc(C)cc1 | 5.29%

Source: article PMC6919601, “Identification of Plasmodium dipeptidyl aminopeptidase allosteric inhibitors by high throughput screening” (PLoS ONE, 2019)
